# Data reported in publication PMC4336329 (PLoS ONE, 2015).
# Screen size: about 310,000 compounds; about 14,000 (4.5%) showed an effect of 50% or more. Effects have a minus sign here. Some of the results follow.
# Biological target: human ether-à-go-go-related gene (hERG) potassium channel (human, UniProt Q12809)
# Assay: primary screen, population patch clamp on CHO cells stably expressing hERG
# 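Also: peak tail current of the secondary pulse compared with the same well before compound.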
# human ether-à-go-go-related gene (hERG) potassium channel, sequence (Q12809 whole entry, looked up): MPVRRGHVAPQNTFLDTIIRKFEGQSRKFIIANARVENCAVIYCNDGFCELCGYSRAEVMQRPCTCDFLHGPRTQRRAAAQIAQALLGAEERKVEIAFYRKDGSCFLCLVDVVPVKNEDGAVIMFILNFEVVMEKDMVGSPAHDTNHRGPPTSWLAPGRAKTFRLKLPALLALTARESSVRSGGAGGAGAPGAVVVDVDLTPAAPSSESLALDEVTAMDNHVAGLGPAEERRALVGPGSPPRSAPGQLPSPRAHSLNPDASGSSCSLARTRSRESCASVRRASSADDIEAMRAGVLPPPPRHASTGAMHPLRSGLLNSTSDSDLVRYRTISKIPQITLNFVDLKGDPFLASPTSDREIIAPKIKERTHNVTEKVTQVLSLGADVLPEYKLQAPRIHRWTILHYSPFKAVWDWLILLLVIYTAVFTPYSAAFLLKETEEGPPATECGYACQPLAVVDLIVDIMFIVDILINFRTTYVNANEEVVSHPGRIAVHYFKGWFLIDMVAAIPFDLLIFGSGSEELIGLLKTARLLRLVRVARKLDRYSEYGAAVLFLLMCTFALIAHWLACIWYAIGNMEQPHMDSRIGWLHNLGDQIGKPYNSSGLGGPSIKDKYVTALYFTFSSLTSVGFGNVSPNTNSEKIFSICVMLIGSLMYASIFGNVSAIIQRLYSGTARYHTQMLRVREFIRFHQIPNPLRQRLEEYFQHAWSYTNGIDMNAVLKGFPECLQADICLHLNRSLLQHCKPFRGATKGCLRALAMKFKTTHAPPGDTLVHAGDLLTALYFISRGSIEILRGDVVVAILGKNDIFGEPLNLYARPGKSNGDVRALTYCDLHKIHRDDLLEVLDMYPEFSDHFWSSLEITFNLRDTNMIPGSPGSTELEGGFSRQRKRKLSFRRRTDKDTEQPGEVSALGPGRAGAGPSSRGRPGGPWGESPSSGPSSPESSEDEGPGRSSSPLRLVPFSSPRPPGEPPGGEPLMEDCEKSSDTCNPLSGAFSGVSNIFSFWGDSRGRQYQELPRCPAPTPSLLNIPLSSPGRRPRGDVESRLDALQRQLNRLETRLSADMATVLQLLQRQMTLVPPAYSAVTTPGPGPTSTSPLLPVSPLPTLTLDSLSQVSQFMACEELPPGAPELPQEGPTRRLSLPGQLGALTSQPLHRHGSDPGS
row,SMILES,"hERG current change (%, negative = inhibition) at 10uM [%]"
1,O=[N+]([O-])c1ccccc1CN1CCN(S(=O)(=O)c2ccccc2)CC1,-15.3
2,COc1ccc(-c2nc(CN3CCCCC3c3cccnc3)c(C)o2)c(F)c1 (stereo not drawn),-35.9
3,CCOC(=O)c1c(O)c(Cl)c(C)[nH]c1=O,19.7
4,CC1SC(=NC(=O)C(C)N2C(=O)c3ccccc3C2=O)NC1=O (stereo not drawn),6.08
5,O=C(CN1C(=O)NC2(CCCC2)C1=O)Nc1ccccc1F,-2.72
6,COc1ccc(N2CCN(C(=O)COc3ncnc4ccccc34)CC2)cc1,-7.2
7,CCC(=O)Nc1ccc(N2CCN(Cc3ccccc3)CC2)cc1,-25.9
8,CCC(=O)c1ccc(OCC(O)CN2CCc3ccccc3C2)cc1.Cl (stereo not drawn),-63.7
9,COC(=O)c1ccc([C@H](NC(=O)c2ccco2)[C@]2(C)C[C@H]2C2CCCCC2)cc1,9.14
10,Cc1nn(Cc2ccc(Cl)cc2)c(C)c1NC(=O)CCCn1nc(C)c([N+](=O)[O-])c1C,-64.5
11,O=C(c1ccc(CS(=O)Cc2ccc(Cl)cc2)o1)N1CCN(c2ccccn2)CC1 (stereo not drawn),-61.2
12,Cc1cc(N2CCOCC2)nc2ccc(NC(=S)NCc3ccc4c(c3)OCO4)cc12,-68.5
13,Cc1ccc(OC(C)C(=O)Nc2ccc(S(=O)(=O)Nc3nccs3)cc2)cc1 (stereo not drawn),6.56
14,COc1cccc(N/C(SCc2ccccc2F)=C(/C#N)C(=O)NCc2cccs2)c1,11.3
15,CCN(C(=O)COC(=O)/C=C/c1cccc(Cl)c1)c1c(N)n(Cc2ccccc2)c(=O)[nH]c1=O,16.5
16,CCOP(=O)(OCC)C(NC(=O)CN1C(=O)c2ccccc2S1(=O)=O)C(Cl)(Cl)Cl (stereo not drawn),11.5
17,N#CCC(=O)N/N=C/c1ccc(N2N=C(c3ccccc3)CC2c2ccccc2)cc1 (stereo not drawn),25
18,O=C(NCc1ccc(F)cc1)C1CCC(CNc2c(N3CCOCC3)c(=O)c2=O)CC1 (stereo not drawn),9.25
19,CNC(=S)N(Cc1ccc(OC)cc1)C1CC(=O)N(c2ccc(C(=O)OC)cc2)C1=O (stereo not drawn),-1.6
20,Cc1ccccc1NC1=NCCCS1,11.1
21,CC[C@H](C)[C@H](NC(=O)c1ccc(Cl)cc1)C(=O)OCC(=O)c1ccc2c(c1)NC(=O)CO2,-45.8
22,O=C(COc1ccccc1)N1CCN(S(=O)(=O)Cc2ccccc2)CC1,-10.3
23,O=C(NC1CC1)C1=COCCO1,13.2

row,SMILES,"hERG current change (%, negative = inhibition) at 10uM [%]"
1,N#Cc1ccccc1OCC(=O)NCC(c1cccs1)N1CCOCC1 (stereo not drawn),0.89
2,O=C(O)c1ccccc1OCCN1CCCC1=O,13.3
3,CCC(C)(C)C1CCc2[nH]nc(C(=O)NCCNC(=O)OC(C)(C)C)c2C1 (stereo not drawn),15.7
4,COc1ccc(OC)c2nc(-c3cccnc3)ccc12,10.2
5,COc1ccc(CC(=O)NNC(=O)CSc2ccc(C)cc2)cc1,17.9
6,CCC1CCCCN1CCCNC(=O)c1ccc(CS(=O)(=O)c2ccc(Br)cc2)o1 (stereo not drawn),-56.7
7,CCOC(=O)Cc1nnc(Nc2ccc(C)cc2)c2ccccc12,-12.4
8,Cn1c(/C(C#N)=C(\O)c2ccc(Br)s2)nc2ccccc21,22.1
9,CCC(=O)N=c1ccn(C2=Nc3ccccc3NC2=C(C#N)C#N)cc1,-2.7
10,Cc1cccc(C)c1NC(=O)C(=O)NCC1CCCN1S(=O)(=O)c1cccs1 (stereo not drawn),-5.32
11,CCOC(=O)C1(C)C=C(Nc2ccc(O)cc2)C(=O)N1c1ccc(O)cc1 (stereo not drawn),3.89
12,COc1ccc(Oc2ccc(C(F)(F)F)cc2NC(=O)c2ccc(F)cc2)cc1,6.56
13,O=C(Nc1cnn(Cc2ccc(Cl)cc2)c1)C1CCCC1,-26.3
14,NC(=O)C1CCN(CC(=O)Nc2ccccn2)CC1,7.82
15,O=C(NCCc1cccs1)C1CC(c2ccccc2F)=NO1 (stereo not drawn),-0.278
16,CCc1cc2c(=O)[nH]c(Cc3ccccc3)nc2s1,4.65
17,COc1ccc(-c2cn[nH]c2N)c(OC)c1,-7.36
18,C/C(=N\NC(=O)c1ccc(CN2CCOCC2)cc1)c1ccc([N+](=O)[O-])cc1,-7.18
19,CCOC(=O)C1(CCc2ccccc2)CCN(C(=O)C2=C(C)OCCO2)CC1,-15.2
20,COC(=O)C1=C(C)N(c2ccc(C)c(C)c2)/C(=C/c2ccco2)C1=O,-1.95
21,COc1ccccc1C1CN(c2ccccc2)N=C1c1cccs1 (stereo not drawn),14.1
22,CN(C(=O)COC(=O)c1ccccc1OCc1ccc(Cl)cc1)c1c(N)n(Cc2ccccc2)c(=O)[nH]c1=O,23.5
